Experimental data: publication PMC6919601, “Identification of Plasmodium dipeptidyl aminopeptidase allosteric inhibitors by high throughput screening” (PLoS ONE, 2019)
In all, about 110,000 compounds went through this assay and about 230 (0.21%) showed an effect of 50% or more. The list shows a part of the results.

Biological target: DPAP1 (Plasmodium falciparum, UniProt Q8IIJ9)
Experiment: primary screen, percent inhibition; read by cleavage of a fluorogenic dipeptide substrate; higher = more effect of the substance
Parameters: species or system P. falciparum D10 trophozoite lysates; single well
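Further: 30 min substrate incubation versus DMSO and 10 µM JCP410 controls.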

Chain of DPAP1 (Q8IIJ9 whole entry, looked up): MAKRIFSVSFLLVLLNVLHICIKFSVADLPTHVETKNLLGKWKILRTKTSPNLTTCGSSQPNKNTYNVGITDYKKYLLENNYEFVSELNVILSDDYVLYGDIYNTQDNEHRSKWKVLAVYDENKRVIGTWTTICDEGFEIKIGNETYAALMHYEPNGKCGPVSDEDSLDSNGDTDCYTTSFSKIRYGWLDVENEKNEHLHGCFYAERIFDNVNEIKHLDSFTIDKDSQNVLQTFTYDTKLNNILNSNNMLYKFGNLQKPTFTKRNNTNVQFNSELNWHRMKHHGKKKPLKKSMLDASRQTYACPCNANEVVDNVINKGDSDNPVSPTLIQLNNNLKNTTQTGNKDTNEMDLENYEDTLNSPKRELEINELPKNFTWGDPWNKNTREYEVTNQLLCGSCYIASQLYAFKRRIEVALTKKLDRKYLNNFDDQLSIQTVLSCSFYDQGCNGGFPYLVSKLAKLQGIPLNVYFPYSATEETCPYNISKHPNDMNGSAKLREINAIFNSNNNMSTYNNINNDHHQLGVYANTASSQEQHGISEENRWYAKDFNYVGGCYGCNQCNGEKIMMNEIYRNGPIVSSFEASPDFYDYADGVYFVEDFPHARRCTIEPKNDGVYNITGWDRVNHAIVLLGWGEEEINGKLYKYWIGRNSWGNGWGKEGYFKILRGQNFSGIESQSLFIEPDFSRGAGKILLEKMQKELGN

Row | Structure (SMILES) | % Inhibition @ 10 uM [%]
1 | CCC(C)NC(=O)CN(C)c1nn2c(=O)cc(C)nc2s1 (stereo not shown) | 3
2 | Cc1onc(-c2ccccc2Cl)c1C(=O)NC1=NCCS1 | -1.85
3 | O=C1CC(c2ccccc2Cl)Sc2ccccc2N1 (stereo not shown) | -2.67
4 | Cc1cc2c(c(O)n1)C(c1ccccc1)C(C#N)=C(N)O2 (stereo not shown) | -0.366
5 | O=[N+]([O-])c1ccc(N2CCN(Cc3c(F)cccc3F)CC2)cc1 | -7.34
6 | Cc1[nH]c2ccccc2c1C1CCN(S(=O)(=O)c2ccc(Br)cc2)CC1 | 0.66
7 | CSC1=NSC2=NC(=O)/C(=C\c3ccc4c(c3)OCO4)C(=N)N12 | 1.39
8 | Clc1ccc(-c2nc(-c3ccncc3)no2)c(Cl)c1 | 3.32
9 | CCOC(=O)c1ccc2c(c1)C1C=CCC1C(c1ccc(F)cc1)N2 (stereo not shown) | -5.11
10 | CCOc1ccccc1C(=O)Nc1ccc(NC(C)=O)cc1 | 1.49
11 | CCn1c(C(O)(c2ccccc2)c2ccccc2)nc2ccccc21 | -3.27
12 | CC(Cc1ccccc1)N/C=C1/CC(=O)NC1=O (stereo not shown) | 5.37
13 | CC(C)C[C@H](NC(=O)OCc1ccc(OC(F)F)cc1)C(=O)NCC#N | -1.41
14 | CCN1C(C(=O)c2ccccc2)=C(OC(=O)c2ccc(F)cc2)c2ccccc2S1(=O)=O | 3.74
15 | c1csc(-c2noc(CSc3nc4ccccc4[nH]3)n2)c1 | -6.71
16 | COc1ccc(NC(=O)NC2CCCCC2)c(OC)c1 | 2.82
17 | CC(Cc1ccco1)NS(=O)(=O)c1csc(C(N)=O)c1 (stereo not shown) | -4.55
18 | Cc1ccc(/C=C/C2=NC(=C\c3ccccc3F)/C(=O)O2)cc1 | -0.945
19 | O=C(O)C1C(C(=O)Nc2cccc(Br)c2)C2C=CC1C21CC1 (stereo not shown) | 3.01
20 | Cc1cc(NC=C2C(=O)CCCC2=O)no1 | 4.01
21 | CC(=O)N1C(=N)S/C(=C/c2cc3ccccc3nc2Sc2ccccc2)C1=O | 0.275
22 | Brc1ccc2c(c1)c1c3c(nccn32)CCC1 | -8.53

Row | Structure (SMILES) | % Inhibition @ 10 uM [%]
23 | C=CCOCC(O)CSc1nc(C)cc(C)n1 (stereo not shown) | 3.48
24 | CC1=CCC2C(=O)N(c3ccc(C(=O)N4CCCCCC4)cc3)C(=O)C2C1 (stereo not shown) | -3.77
25 | COc1cccc(C(=O)/N=c2\sc(C)c(-c3ccccc3)n2C)c1 | -1.43
26 | CC(C)(Oc1ccc(Cl)cc1)C(=O)Nc1cc(Cl)ccc1O | -10.8
27 | CCOc1ccc(N2CCc3c2nc2ccccc2c3N)cc1 | -1.85
28 | Cc1ccc(NC(=O)C(=O)NC2CCCC2)cc1C | 1.29
29 | Cc1nn(CC(=O)NCc2cccs2)c(=O)c2cccn12 | -0.542
30 | O=c1c2cccnc2n(Cc2cc(=O)n3cc(Cl)ccc3n2)c(=O)n1CCc1ccccc1 | -1.66
31 | COc1ncnc2c1sc1nc(N3CCOCC3)c3c(c12)CCCC3 | 6.05
32 | O=C(Cc1cccc2ccccc12)NCCOc1ccccc1Cl | -4.35
33 | O=S(=O)(c1ccccc1)N1CCN(Cc2ccc(Cl)cc2Cl)CC1 | 8.98
34 | Nc1ccc(S(=O)(=O)Nc2nc3ccccc3nc2Nc2ccccc2)cc1 | -0.0372
35 | O=C(O)CNC(=O)C/N=C/c1c(O)oc2ccccc2c1=O | -5.38
36 | CCN(CC)C(=O)N1CCN(CCC#N)CC1 | 0.0345
37 | CCS(=O)(=O)N1CCC2(CC1)OC(=O)C(C)=C2C(=O)N(C)Cc1ccccc1 | 1.73
38 | O=C1N/C(=C/c2ccc(C(F)(F)F)cc2)C(=O)N1c1ccccc1 | 2.82
39 | O=C(NCc1ccc2c(c1)OCO2)C1CCN(c2nn3cc(-c4ccc(F)cc4)nc3s2)CC1 | -1.58
40 | Cc1cccc(-c2nc(CS(=O)CC(=O)NCCc3ccccc3)c(C)o2)c1 (stereo not shown) | 2.37
41 | CCN1CCC(NCc2ccccc2Cl)CC1 | -0.233
42 | CCCOC(=O)CSC1=C(C#N)C(c2ccccc2Cl)CC(=O)N1 (stereo not shown) | 0.345
43 | Cc1ccc(CNC(=O)Cn2nc(-c3ccccc3)ccc2=O)cc1 | 0.514
44 | Cc1cccc(N2CCN(S(=O)(=O)c3ccc(Cl)cc3)CC2)c1C | 1.92

Row | Structure (SMILES) | % Inhibition @ 10 uM [%]
45 | O=[N+]([O-])c1cccc(Nc2nc(OC(C(F)(F)F)C(F)(F)F)nc(N3CCOCC3)n2)c1 | 6.43
46 | Cc1[nH]c(-c2ccc(F)cc2)cc1C(=O)NC1CCN(Cc2ccccc2)CC1 | 0.229
47 | COc1ccc(N(CC(=O)Nc2cc(C)ccc2C)S(C)(=O)=O)cc1OC | -1.43
48 | CCC1NCCNC1=O (stereo not shown) | 3.93
49 | FC(F)(F)c1cccc(-c2nnn3c2nc(Cl)c2ccccc23)c1 | 2.97
50 | Cc1ccc(C(=O)Nc2nn(C)c3nc(C)c(Cl)c(C)c23)cc1 | 7.25
51 | O=C(COCc1cc(-c2ccc3c(c2)OCO3)on1)NCCc1cccs1 | 4.11
52 | COc1cccc2c1cc1c(=O)n(CC(=O)N3CCC(C(N)=O)CC3)nc(C)n12 | -3.47
53 | Cc1ccc(C(C)C)c(OCC(=O)Nc2cc([N+](=O)[O-])ccc2C)c1 | -2.59
54 | Brc1ccc(Cn2cnc3ccccc32)cc1 | 0.162
55 | O=C(NCCCN1CCCC1=O)c1ccc2c(c1)sc1nc(-c3ccc(F)cc3)cn12 | -2.07
56 | COC(=O)C1=C(C)N=c2s/c(=C/c3ccc(F)cc3)c(=O)n2C1c1ccc(OC)c(OC)c1 (stereo not shown) | -3.75
57 | CCN(Cc1ccccc1)C(=O)c1ccccc1C | 4.03
58 | O=C1/C(=C\c2ccc3c(c2)OCO3)S/C(=N\c2ccccc2)N1Cc1cccnc1 | -3.69
59 | O=C(Nc1ccc(Cl)c(Cl)c1)c1cccc(C(=O)Nc2ccc(Cl)c(Cl)c2)c1 | -3.04
60 | COc1cc(NC(=O)c2nn(C)cc2Br)c(OC)cc1Cl | -2.99
61 | Clc1ccc2nc(NC3CCN(Cc4ccccc4)CC3)c3nncn3c2c1 | 4.33
62 | COc1ccc(-c2cc(C(=O)O)c3c(-c4ccc(C)cc4)[nH]nc3n2)c(OC)c1 | -0.901
63 | CCOc1ccc(CCNC(=O)c2ccc3snnc3c2)cc1 | 3.24
64 | Cc1ccc(CN2CCN(C(=O)CCN3C(=O)c4ccccc4C3=O)CC2)cc1 | -1.84
